# Laboratory results published in the supplement of paper PMC8728848.
# The list shows a part of the results.
# B1: Gal-9-hFc (Mus musculus), O08573-2 (protein)
# chain: MALFSAQSPYINPIIPFTGPIQGGLQEGLQVTLQGTTKSFAQRFVVNFQNSFNGNDIAFHFNPRFEEGGYVVCNTKQNGQWGPEERKMQMPFQKGMPFELCFLVQRSEFKVMVNKKFFVQYQHRVPYHLVDTIAVSGCLKLSFITFQTQNFRPAHQAPMAQTTIHMVHSTPGQMFSTPGIPPVVYPTPAYTIPFYTPIPNGLYPSKSIMISGNVLPDATRFHINLRCGGDIAFHLNPRFNENAVVRNTQINNSWGQEERSLLGRMPFSRGQSFSVWIICEGHCFKVAVNGQHMCEYYHRLKNLQDINTLEVAGDIQLTHVQT
# Legend:
# Experiment in all cases: glycan array binding signal (z-score within array); higher = stronger binding
# Conditions in all cases: glycan notation: IUPAC condensed, linker removed
# [1] = target: GlcNAc(b1-3)GalNAc
# In short: (§1)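 Glycan array data were curated from 3228 arrays in the Consortium for Functional Glycomics database and kept only where the protein sequence was available. Glycan names were converted to IUPAC-condensed notation, and columns mapping to the same glycan were averaged. The binding signal is a within-array Z-score, averaged across arrays of the same protein sequence at different concentrations or buffers and across linkers. Negative Z-scores can be read as non-binding.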
# [2] = target: GlcNAc(b1-3)Man
# In short: as §1
# [3] = target: GlcNAc(b1-3)[GlcNAc(b1-4)][GlcNAc(b1-6)]GlcNAc
# In short: as §1
# [4] = target: GlcNAc(b1-3)[GlcNAc(b1-6)]Gal(b1-4)GlcNAc
# In short: as §1
# [5] = target: GlcNAc(b1-3)[GlcNAc(b1-6)]GalNAc
# In short: as §1
# [6] = target: GlcNAc(b1-4)Gal(b1-4)GlcNAc
# In short: as §1
# [7] = target: GlcNAc(b1-4)GlcNAc
# In short: as §1
# [8] = target: GlcNAc(b1-4)GlcNAc(b1-4)GlcNAc
# In short: as §1
# [9] = target: GlcNAc(b1-4)GlcNAc(b1-4)GlcNAc(b1-4)GlcNAc(b1-4)GlcNAc
# In short: as §1
# [10] = target: GlcNAc(b1-4)GlcNAc(b1-4)GlcNAc(b1-4)GlcNAc(b1-4)GlcNAc(b1-4)GlcNAc
# In short: as §1
# [11] = target: GlcNAc(b1-4)[GlcNAc(b1-6)]GalNAc
# In short: as §1
# [12] = target: GlcNAc(b1-6)Gal(b1-4)GlcNAc
# In short: as §1
# [13] = target: GlcNAc(b1-6)GalNAc
# In short: as §1
# [14] = target: GlcNAc6S(b1-3)Gal(b1-4)GlcNAc
# In short: as §1
# [15] = target: Kdn(a2-3)Gal(b1-3)GalNAc
# In short: as §1
# [16] = target: Kdn(a2-3)Gal(b1-3)GlcNAc
# In short: as §1
# [17] = target: Kdn(a2-3)Gal(b1-4)Glc
# In short: as §1
# [18] = target: Kdn(a2-3)Gal(b1-4)GlcNAc
# In short: as §1
# [19] = target: Kdn(a2-3)Gal(b1-4)[Fuc(a1-3)]GlcNAc
# In short: as §1
# [20] = target: Kdn(a2-6)Gal(b1-4)GlcNAc
# In short: as §1
# [21] = target: Man(a1-2)Man(a1-2)Man(a1-3)Man
# In short: as §1
# [22] = target: Man(a1-2)Man(a1-2)Man(a1-6)[Man(a1-3)]Man
# In short: as §1
# [23] = target: Man(a1-2)Man(a1-3)Man
# In short: as §1
# [24] = target: Man(a1-2)Man(a1-3)[Man(a1-2)Man(a1-6)]Man
# In short: as §1
# [25] = target: Man(a1-2)Man(a1-3)[Man(a1-2)Man(a1-6)]Man(a1-6)[Man(a1-2)Man(a1-2)Man(a1-3)]Man
# In short: as §1
# [26] = target: Man(a1-2)Man(a1-3)[Man(a1-2)Man(a1-6)]Man(a1-6)[Man(a1-2)Man(a1-2)Man(a1-3)]Man(b1-4)GlcNAc(b1-4)GlcNAc
# In short: as §1
# [27] = target: Man(a1-2)Man(a1-3)[Man(a1-6)]Man(a1-6)[Man(a1-2)Man(a1-3)]Man(b1-4)GlcNAc(b1-4)GlcNAc
# In short: as §1
# [28] = target: Man(a1-2)Man(a1-6)[Man(a1-3)]Man(a1-6)[Man(a1-2)Man(a1-2)Man(a1-3)]Man
# In short: as §1
# [29] = target: Man(a1-2)Man(a1-6)[Man(a1-3)]Man(a1-6)[Man(a1-2)Man(a1-2)Man(a1-3)]Man(b1-4)GlcNAc(b1-4)GlcNAc
# In short: as §1
# [30] = target: Man(a1-3)[Man(a1-6)]Man
# In short: as §1
# [31] = target: Man(a1-3)[Man(a1-6)]Man(a1-6)[Man(a1-2)Man(a1-3)]Man(b1-4)GlcNAc(b1-4)GlcNAc
# In short: as §1
# [32] = target: Man(a1-3)[Man(a1-6)]Man(a1-6)[Man(a1-3)]Man
# In short: as §1
# [33] = target: Man(a1-3)[Man(a1-6)]Man(a1-6)[Man(a1-3)]Man(b1-4)GlcNAc(b1-4)GlcNAc
# In short: as §1
# [34] = target: Man(a1-3)[Man(a1-6)]Man(b1-4)GlcNAc(b1-4)GlcNAc
# In short: as §1
# [35] = target: Man(a1-3)[Man(a1-6)]Man(b1-4)GlcNAc(b1-4)[Fuc(a1-6)]GlcNAc
# In short: as §1
# [36] = target: Man(a1-6)Man
# In short: as §1
# [37] = target: Man(b1-4)GlcNAc
# In short: as §1
# [38] = target: MurNAc(b1-4)GlcNAc
# In short: as §1
binder,measurement,setting,value
B1,glycan array binding signal (z-score),[1],-0.45
same,glycan array binding signal (z-score),[2],1.05
same,glycan array binding signal (z-score),[3],-0.562
same,glycan array binding signal (z-score),[4],-0.353
same,glycan array binding signal (z-score),[5],-0.343
same,glycan array binding signal (z-score),[6],-0.489
same,glycan array binding signal (z-score),[7],4.66
same,glycan array binding signal (z-score),[8],-0.132
same,glycan array binding signal (z-score),[9],-0.14
same,glycan array binding signal (z-score),[10],-0.128
same,glycan array binding signal (z-score),[11],-0.457
same,glycan array binding signal (z-score),[12],-0.464
same,glycan array binding signal (z-score),[13],-0.387
same,glycan array binding signal (z-score),[14],-0.36
same,glycan array binding signal (z-score),[15],-0.115
same,glycan array binding signal (z-score),[16],-0.153
same,glycan array binding signal (z-score),[17],2.38
same,glycan array binding signal (z-score),[18],-0.232
same,glycan array binding signal (z-score),[19],0.284
same,glycan array binding signal (z-score),[20],-0.286
same,glycan array binding signal (z-score),[21],-0.431
same,glycan array binding signal (z-score),[22],-0.231
same,glycan array binding signal (z-score),[23],-0.472
same,glycan array binding signal (z-score),[24],-0.471
same,glycan array binding signal (z-score),[25],-0.447
same,glycan array binding signal (z-score),[26],0.141
same,glycan array binding signal (z-score),[27],-0.393
same,glycan array binding signal (z-score),[28],-0.354
same,glycan array binding signal (z-score),[29],-0.312
same,glycan array binding signal (z-score),[30],-0.179
same,glycan array binding signal (z-score),[31],-0.26
same,glycan array binding signal (z-score),[32],1.45
same,glycan array binding signal (z-score),[33],-0.264
same,glycan array binding signal (z-score),[34],-0.509
same,glycan array binding signal (z-score),[35],-0.391
same,glycan array binding signal (z-score),[36],0.75
same,glycan array binding signal (z-score),[37],-0.031
same,glycan array binding signal (z-score),[38],-0.303
